{
  "source": "paper PMC9911399",
  "about": "“Two distinct binding modes provide the RNA-binding protein RbFox with extraordinary sequence specificity”",
  "binders": {"B1": {"name": "GGAACCG (DNA:RNA)", "RNA": "GGGAGACCGGAAUUCAGAUUGUCCGGAACCGUUAAAUCCCGUCGUAGCCACCA", "DNA 1": "CAATCTGAATTCCGGTCTCCC", "DNA 2": "TGGTGGCTACGACGGGATT"}, "B2": {"name": "CAUCUUG (DNA:RNA)", "RNA": "B1 RNA with G25C, G26A, A27U, A28C, C29U, C30U", "DNA 1": "CAATCTGAATTCCGGTCTCCC", "DNA 2": "TGGTGGCTACGACGGGATT"}, "B3": {"name": "AGAUUCG (DNA:RNA)", "RNA": "B1 RNA with G25A, A28U, C29U", "DNA 1": "CAATCTGAATTCCGGTCTCCC", "DNA 2": "TGGTGGCTACGACGGGATT"}, "B4": {"name": "AUGGCCU (DNA:RNA)", "RNA": "B1 RNA with G25A, G26U, A27G, A28G, G31U", "DNA 1": "CAATCTGAATTCCGGTCTCCC", "DNA 2": "TGGTGGCTACGACGGGATT"}, "B5": {"name": "UUCGAAA (DNA:RNA)", "RNA": "GGGAGACCGGAAUUCAGAUUGUCCUUCGAAAUUAAAUCCCGUCGUAGCCACCA", "DNA 1": "CAATCTGAATTCCGGTCTCCC", "DNA 2": "TGGTGGCTACGACGGGATT"}, "B6": {"name": "UUCCCCG (DNA:RNA)", "RNA": "B1 RNA with G25U, G26U, A27C, A28C", "DNA 1": "CAATCTGAATTCCGGTCTCCC", "DNA 2": "TGGTGGCTACGACGGGATT"}, "B7": {"name": "AAGGCGG (DNA:RNA)", "RNA": "B1 RNA with G25A, G26A, A27G, A28G, C30G", "DNA 1": "CAATCTGAATTCCGGTCTCCC", "DNA 2": "TGGTGGCTACGACGGGATT"}, "B8": {"name": "GAUUGCA (DNA:RNA)", "RNA": "B1 RNA with G26A, A27U, A28U, C29G, G31A", "DNA 1": "CAATCTGAATTCCGGTCTCCC", "DNA 2": "TGGTGGCTACGACGGGATT"}, "B9": {"name": "GUACGCU (DNA:RNA)", "RNA": "B1 RNA with G26U, A28C, C29G, G31U", "DNA 1": "CAATCTGAATTCCGGTCTCCC", "DNA 2": "TGGTGGCTACGACGGGATT"}, "B10": {"name": "CCCCAGA (DNA:RNA)", "RNA": "B5 RNA with U25C, U26C, G28C, A30G", "DNA 1": "CAATCTGAATTCCGGTCTCCC", "DNA 2": "TGGTGGCTACGACGGGATT"}, "B11": {"name": "ACCUCUU (DNA:RNA)", "RNA": "B1 RNA with G25A, G26C, A27C, A28U, C30U, G31U", "DNA 1": "CAATCTGAATTCCGGTCTCCC", "DNA 2": "TGGTGGCTACGACGGGATT"}, "B12": {"name": "GAUAAUC (DNA:RNA)", "RNA": "B1 RNA with G26A, A27U, C29A, C30U, G31C", "DNA 1": "CAATCTGAATTCCGGTCTCCC", "DNA 2": "TGGTGGCTACGACGGGATT"}, "B13": {"name": "UGGCCAA (DNA:RNA)", "RNA": "B5 RNA with U26G, C27G, G28C, A29C", "DNA 1": "CAATCTGAATTCCGGTCTCCC", "DNA 2": "TGGTGGCTACGACGGGATT"}, "B14": {"name": "UAGAAUA (DNA:RNA)", "RNA": "B5 RNA with U26A, C27G, G28A, A30U", "DNA 1": "CAATCTGAATTCCGGTCTCCC", "DNA 2": "TGGTGGCTACGACGGGATT"}, "B15": {"name": "GCCGGAC (DNA:RNA)", "RNA": "B5 RNA with U25G, U26C, A29G, A31C", "DNA 1": "CAATCTGAATTCCGGTCTCCC", "DNA 2": "TGGTGGCTACGACGGGATT"}, "B16": {"name": "AACCCGG (DNA:RNA)", "RNA": "B1 RNA with G25A, G26A, A27C, A28C, C30G", "DNA 1": "CAATCTGAATTCCGGTCTCCC", "DNA 2": "TGGTGGCTACGACGGGATT"}, "B17": {"name": "GCCGUAC (DNA:RNA)", "RNA": "B5 RNA with U25G, U26C, A29U, A31C", "DNA 1": "CAATCTGAATTCCGGTCTCCC", "DNA 2": "TGGTGGCTACGACGGGATT"}, "B18": {"name": "AAGCAUU (DNA:RNA)", "RNA": "B5 RNA with U25A, U26A, C27G, G28C, A30U, A31U", "DNA 1": "CAATCTGAATTCCGGTCTCCC", "DNA 2": "TGGTGGCTACGACGGGATT"}, "B19": {"name": "GAGCGUG (DNA:RNA)", "RNA": "B1 RNA with G26A, A27G, A28C, C29G, C30U", "DNA 1": "CAATCTGAATTCCGGTCTCCC", "DNA 2": "TGGTGGCTACGACGGGATT"}, "B20": {"name": "CUAGCCG (DNA:RNA)", "RNA": "B1 RNA with G25C, G26U, A28G", "DNA 1": "CAATCTGAATTCCGGTCTCCC", "DNA 2": "TGGTGGCTACGACGGGATT"}},
  "note": "Positions count from the first letter of the chain named. Some of the results follow.",
  "data": [
    {"target": "T1, RBFOX1 RRM (Homo sapiens, UniProt Q9NWB1 109-208)", "T1 sequence": "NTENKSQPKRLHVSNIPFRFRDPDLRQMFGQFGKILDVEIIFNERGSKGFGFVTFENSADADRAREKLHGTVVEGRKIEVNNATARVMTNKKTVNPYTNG", "assay": "EMSA; HiTS-Eq, 1 nM pool, 10 min; buffer printed only for the single-RNA assays: 10 mM Tris pH 7.5, 150 mM NaCl, 3.4 mM EDTA, 0.001% NP-40, 30 C", "conditions": "tags: His6 N-terminal (pET28a); label: 5' 32P", "procedure,_shortened": "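Purified RbFox RRM (wild type or mutant) was equilibrated for 10 min in 50 µL with 1 nM of a 5′-radiolabelled pool of RNA with 7 randomized nucleotides, its flanks annealed to DNA oligonucleotides, across increasing protein concentrations. Free RNA was separated by 8% native PAGE, excised, reverse-transcribed, PCR-barcoded and sequenced on an Illumina HiSeq 2500. Relative association constants came from read-count changes of each variant against the control reaction, normalised to the cognate motif.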", "values": [
      {"binder": "B1", "binding signal": "0.0141 KA relative to UGCAUGU"},
      {"binder": "B2", "binding signal": "0.00714 KA relative to UGCAUGU"},
      {"binder": "B3", "binding signal": "0.012 KA relative to UGCAUGU"},
      {"binder": "B4", "binding signal": "0.0136 KA relative to UGCAUGU"},
      {"binder": "B5", "binding signal": "0.0104 KA relative to UGCAUGU"},
      {"binder": "B6", "binding signal": "0.00506 KA relative to UGCAUGU"},
      {"binder": "B7", "binding signal": "0.014 KA relative to UGCAUGU"},
      {"binder": "B8", "binding signal": "0.0277 KA relative to UGCAUGU"},
      {"binder": "B9", "binding signal": "0.00959 KA relative to UGCAUGU"},
      {"binder": "B10", "binding signal": "0.0107 KA relative to UGCAUGU"},
      {"binder": "B11", "binding signal": "0.0014 KA relative to UGCAUGU"},
      {"binder": "B12", "binding signal": "0.00765 KA relative to UGCAUGU"},
      {"binder": "B13", "binding signal": "0.011 KA relative to UGCAUGU"},
      {"binder": "B14", "binding signal": "0.00474 KA relative to UGCAUGU"},
      {"binder": "B15", "binding signal": "0.0111 KA relative to UGCAUGU"},
      {"binder": "B16", "binding signal": "0.00503 KA relative to UGCAUGU"},
      {"binder": "B17", "binding signal": "0.0108 KA relative to UGCAUGU"},
      {"binder": "B18", "binding signal": "0.00706 KA relative to UGCAUGU"},
      {"binder": "B19", "binding signal": "0.0308 KA relative to UGCAUGU"},
      {"binder": "B20", "binding signal": "0.00693 KA relative to UGCAUGU"}
    ]}
  ]
}
